The list shows a part of the results.

The test has as its system PF3D7_0420300 AP2 domain 1 (GST-tagged). Nature of the test: gcPBM binding intensity (ln(normalized median fluorescence intensity)); higher = stronger DNA binding. Put shortly: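 After 1 h on an Agilent 4 × 180k array of primer-extended double-stranded 36-bp intergenic genomic probes and negative controls, bound GST-tagged P. falciparum DNA-binding domains were detected with Alexa488 anti-GST antibody and scanned at 488 nm. The domains had been expressed in E. coli, and binding took place in 1× PBS with 1% milk, 0.2 mg/ml BSA, 0.5% salmon testes DNA and 0.03% Triton X-100. Binding intensity is the highest Masliner-normalised natural-log median intensity across replicate spots of either probe orientation.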
As for “AAACAAATATATATATGTACTTATAAAAAAAAAAAT [XGTACX_site2211]”, the “gcPBM binding intensity (ln)” value came out at 9.34.

Regarding “TTTTTATTTTTTGAAACACACACAAAAAAAATGATA [CACACA_site8564]”, the “gcPBM binding intensity (ln)” value was 9.41.

Regarding “CATTTTTTGCTTTCAACACACATACAATATATATAA [CACACA_site6127]”, the “gcPBM binding intensity (ln)” value is 9.46.

“AAGGATCACGCACAAACACACATATTTATATTTATA [CACACA_site6405]”: the “gcPBM binding intensity (ln)” value is 9.47.

With “CTTTATTTTTTATACACACACAATATGTATATATAT [CACACA_site3550]”, the “gcPBM binding intensity (ln)” value amounted to 9.83.

As to “CATATAATAAATAATACACACATATTGTAAATATAT [CACACA_site5734]”, the “gcPBM binding intensity (ln)” value was 9.62.

Consider “GTAATGAACAAACACAAAAAAAAAAAAAAAATAATA [TGCATGCA_negctrl_site344]”, for which the “gcPBM binding intensity (ln)” value was 9.27.

For AATTGAGTATCGTGAGTGCAAAACGTGGTTCAAAGA, the “gcPBM binding intensity (ln)” value worked out at 9.37.

“TAAAATAAAATAAAATGTACTTTCCTTTTGATAATA [XGTACX_site6288]”: the “gcPBM binding intensity (ln)” value was 8.86.

In the case of “TTTTCCCTTACAGAAAAAAAAAAATTCCTAACCCCG [CACACA_negctrl_site650]”, the “gcPBM binding intensity (ln)” value turned out to be 9.03.

With “ATATATTTTAGGAGAGTGCATTTAATATTATTTAAT [GTGCAC_site9444]”, the “gcPBM binding intensity (ln)” value was found to be 9.11.

As to “TTATATATTTATAATCGTACAATAATTAACGTAAAA [XGTACX_site3206]”, the “gcPBM binding intensity (ln)” value is 9.09.

Consider “TATATGGGATATATGTGTACATATAAAATATGTATC [XGTACX_site3365]”, for which the “gcPBM binding intensity (ln)” value is 9.21.

Consider “TTTTTTTTTTTTTTTACACACATTTGAATAACTTTA [CACACA_site6810]”, for which the “gcPBM binding intensity (ln)” value stood at 9.24.

Regarding “AAAAGAATTAAAAAATGTACATATAATATATATATA [XGTACX_site6721]”, the “gcPBM binding intensity (ln)” value came out at 9.22.

For the sequence “CTTAATATGAATAAAACACACATATATAATTTGTAA [CACACA_site5120]”, the “gcPBM binding intensity (ln)” value was determined as 9.38.

On to “AAAAAAGAAGACATCTAAGTAATAGTAACAATGTAT [CACACA_negctrl_site1660]”, for which the “gcPBM binding intensity (ln)” value came out at 9.45.

For the sequence “GACATATTATTCATGTGTACATATTATATGTATATA [XGTACX_site3442]”, the “gcPBM binding intensity (ln)” value was found to be 9.32.

Turning to AAGAATTTAGAAGGCATGCACTTAAACATGCATATA, the “gcPBM binding intensity (ln)” value worked out at 9.12.

Take “TATAAATATACACCCACACACATATATAAATAAATA [CACACA_site7717]”: the “gcPBM binding intensity (ln)” value is 9.89.

For the sequence “ATATGTTTGATTTTTTTTTTTTTTTTTTTTATGTGT [CACACA_negctrl_site1001]”, the “gcPBM binding intensity (ln)” value stood at 9.39.

With “AAAAAAAAAATTAAAAGTACAGAAAATAAATAAATA [XGTACX_site7470]”, the “gcPBM binding intensity (ln)” value stood at 9.27.

As for “TTAATACACCATAAAAGTACATAATATGATATTTAA [XGTACX_site8561]”, the “gcPBM binding intensity (ln)” value turned out to be 9.23.

For the sequence “TTTTTCTTTTTTTTTTCCTTTATCACATAAGAAAAA [CACACA_negctrl_site192]”, the “gcPBM binding intensity (ln)” value was determined as 8.89.

Consider “AAAATGAAGAAGTGCACACATATATATATTTATATA [CACACA_site507]”, for which the “gcPBM binding intensity (ln)” value amounted to 9.59.

As for “AAGATATGAGGGAATACACACATATATATATATATA [CACACA_site1581]”, the “gcPBM binding intensity (ln)” value was 9.37.

“AAGAAAATAAATAATACACACAAGGATTTGTAAATA [CACACA_site690]”: the “gcPBM binding intensity (ln)” value turned out to be 9.71.

As for “CTTTTTTTTTAAAAATGTACACATTTTTGAAAATAC [XGTACX_site3127]”, the “gcPBM binding intensity (ln)” value came out at 8.92.

On to “CATAATATATATTGAGCATGCTACTATTGTTAGAAA [TGCATGCA_site740]”, for which the “gcPBM binding intensity (ln)” value is 9.18.

Consider “ACATATAAGATATATACACACATATAAATACATTAA [CACACA_site7763]”, for which the “gcPBM binding intensity (ln)” value amounted to 9.7.

Take “AAAAAAAAAAACTACACACATACAAATATTTATATA [CACACA_site2574]”: the “gcPBM binding intensity (ln)” value came out at 9.58.

Consider “TTATAAAAAGAACAATTAAAAAAAAATAAAATAAAA [XGTACX_negctrl_site398]”, for which the “gcPBM binding intensity (ln)” value is 9.13.

For the sequence “AGAATAGTGGAAAACACACACGTTTGAGATATGGAC [CACACA_site4782]”, the “gcPBM binding intensity (ln)” value was 9.75.

For “CACCCACCCACATACACACACATACACATATATATA [CACACA_site1722]”, the “gcPBM binding intensity (ln)” value is 10.2.

Consider “GCACGTGTGATTAGATGTACATAACATGTATATGTC [XGTACX_site4632]”, for which the “gcPBM binding intensity (ln)” value amounted to 9.18.

For “TTTTTATGTTCTATATATATATATATATATATATAT [GTGCAC_negctrl_site306]”, the “gcPBM binding intensity (ln)” value worked out at 9.25.

In the case of “CAAATAAAAAAAGTAGCACACATGAATAAAATATAT [CACACA_site3130]”, the “gcPBM binding intensity (ln)” value worked out at 9.73.

“ATACATACATATGTATGTACGTATGTATGTATGTAT [XGTACX_site3853]”: the “gcPBM binding intensity (ln)” value stood at 9.13.

As for “ATATCTTCACTTATATGTACTTACATTTTTTTTTTT [XGTACX_site8696]”, the “gcPBM binding intensity (ln)” value came to 9.47.

As to “ATTTGTATATAATATATATAATTTTTTTTTTTTGTT [XGTACX_negctrl_site425]”, the “gcPBM binding intensity (ln)” value is 9.28.

As to “ATAACTATATACATCTGTACATAATACATAGATAAA [XGTACX_site2795]”, the “gcPBM binding intensity (ln)” value amounted to 9.31.

Consider “TGATAAATTTTCACATGTACATATATAGAATAACCT [XGTACX_site2860]”, for which the “gcPBM binding intensity (ln)” value is 9.21.

With “ATTAAATCATATGAATGTACGGATATATATATTTCC [XGTACX_site8650]”, the “gcPBM binding intensity (ln)” value worked out at 9.13.

Take “ATAATATATGCAAAAACATGCACATAATATGTAAAA [TGCATGCA_site742]”: the “gcPBM binding intensity (ln)” value worked out at 9.01.

The values above are taken from the supplement of paper PMC11417369.
